Laboratory results from PubChem BioAssay AID504706 (National Center for Advancing Translational Sciences (NCATS), 2011).
The whole screen tested about 320,000 compounds, of which about 200 (0.062%) were called active. Inconclusive results, whose numbers are uncertain, are shown with a selection of clear calls. Calls come from the whole dose curve; as a rule, active = well fitted activation curve with a large enough effect; inconclusive = small, poorly fitted or top-dose-only effect; inactive = no such curve, though single readings can be large or run the other way. No potency is given beside an inconclusive call; the fits are too rough.

Assay: qHTS assay for re-activators of p53 using a Luc reporter; note: nearly all actives have a fitted effect of over 45% in size; for activity change, positive = activation: % of control where 0% means no effect
Details: H1299 p53-A138V BP100-luciferase reporter, luminescence, 24 h; series mostly up to 92.2 µM; activity change, positive = activation: at the top concentration
Method in brief: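 H1299 (p53-null), stable ts p53-A138V + BP100-Luc; 1000 cells/well, Opti-MEM/10% FBS; cpd 4 pt, 1:5; 24 h, 37 deg C, 5% CO2; detection reagent 10 min RT; luminescence.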
Potency is the fitted concentration of half-maximal effect; tags give direction and shape of the fitted curve.

SMILES	Potency	activity change, positive = activation
CC(C)=C1SC(N2CCN(Cc3ccccc3)CC2)=NC1=O	inconclusive [activator, single point]	–
CCc1ccc(-c2cc(C)no2)cc1S(=O)(=O)N1CCN(c2cccc(C)c2C)CC1	–	inactive: 0.85%
CCCCc1c(O)nc(SCC(=O)NCCc2ccc(OC)c(OC)c2)[nH]c1=O	inconclusive [activator, partial curve, poor fit]	–
CC(C)c1ccc(NC(=O)C(c2ccc3c(c2)OCO3)N2CCCCC2)cc1 (centres undefined)	–	inactive: 14.9%
O=C(O)c1cc(-c2ccccc2)on1	–	inactive: 5.08%
O=C1/C(=C\c2ccc3c(c2)OCO3)CCC/C1=C/c1ccc2c(c1)OCO2	inconclusive [activator, partial curve, poor fit]	–
COc1ccccc1N(C)S(=O)(=O)c1ccc(C(=O)N(C)Cc2ccc(Cl)s2)cc1	–	inactive: -5.9%
CCCc1cc(-c2n[nH]c(=S)n2CC)cs1	–	inactive: 6.48%
O=C(Nc1ccc(Cl)cc1C(F)(F)F)C(Sc1nnc(-c2cccs2)o1)c1ccccc1 (centres undefined)	inconclusive [activator, partial curve, poor fit]	–
CC#C[C@]1(O)CC[C@H]2[C@@H]3CCC4=CC(=O)CCC4=C3[C@@H](c3ccc(N(C)C)cc3)C[C@@]21C	–	inactive: -5.83%
CN(C)S(=O)(=O)c1cccc(NC(=S)Nc2cc(Cl)cc(Cl)c2)c1	–	inactive: 5.84%
O=C(N/N=C/c1ccc(O)c(O)c1)NC12CC3CC(CC(C3)C1)C2	–	inactive: 11.1%
COc1cc2c3nnc(-c4ccc(F)cc4)c-3cn(Cc3ccc(C)cc3)c2cc1OC	inconclusive [activator, single point]	–
Cc1cc(C(=O)CN2C(=O)C3CC=CCC3C2=O)c(C)n1-c1ccccc1 (centres undefined)	inconclusive [activator, partial curve, poor fit]	–
O=C(Nc1ccc2c(c1)CCC2)C1CCCO1 (centres undefined)	inconclusive [activator, partial curve, poor fit]	–
COC(=O)C(Cc1ccc(OC(=O)c2ccc(C(F)(F)F)cc2)cc1)N1Cc2ccccc2C1=O (centres undefined)	inconclusive [activator, partial curve, poor fit]	–
CCOC(=O)C1(CCOc2ccccc2)CCN(Cc2ccc(O)cc2)CC1	inconclusive [activator, partial curve, poor fit]	–
COc1ccc(-c2cc(C)no2)cc1S(=O)(=O)N1CCOc2ccc(Cl)cc21	inconclusive [activator, single point]	–
COc1ccc(C2C(C#N)=C(N)Oc3cc(C)n(Cc4ccncc4)c(=O)c32)cc1 (centres undefined)	–	inactive: -2.85%
